Data published in PubChem BioAssay AID651820 (National Center for Advancing Translational Sciences (NCATS), 2012).
Values joined by “and” are separate entries in the source; they are usually repeats but may differ in a detail not shown here. Equal values may be shown once. The campaign covered roughly 340,000 compounds. About 12,000 (3.5%) were called active. Inconclusive results, whose numbers are uncertain, are shown with a selection of clear calls. Calls come from the whole dose curve; as a rule, active = well fitted inhibition curve with a large enough effect; inconclusive = small, poorly fitted or top-dose-only effect, or another doubt; inactive = no such curve, though single readings can be large or run the other way. A potency beside an inconclusive call is a rough fit, not a confirmed value.

Experiment: qHTS Assay for Inhibitors of Hepatitis C Virus (HCV)
Conditions: Huh7.5.1 HCVcc-Cre (HCVcc is cell-culture hepatitis C virus) infection, luciferase reporter, 44 h; activity change, negative = inhibition: at 41.8 µM (top of the series) unless noted
Procedure, shortened: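 HCVcc-Cre virus at an moi near 0.5 was added right after compound to cells cultured 4 h from seeding (1,000 cells/well). Luciferase activity was determined 44 h later, 15 min after substrate addition at RT.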
% is set by controls: 0 for no effect and ±100 for the full control effect; potency is the fitted concentration of half-maximal effect; tags give direction and shape of the fitted curve.

SMILES	Potency	activity change, negative = inhibition
COc1cccc2c(=O)cc(C)n(CC(=O)Nc3ccccc3C)c12	inconclusive: 14.1 µM [inhibitor, single point]	–
Cc1[nH]nc2c1C(c1cc(Br)cs1)C(C#N)=C(N)O2 (configuration not stated)	inconclusive: 14.1 µM [inhibitor, single point]	–
CCOc1ccccc1C(=O)NCC(=O)NCC(c1ccco1)N1CCCCC1 (configuration not stated)	–	inconclusive: -100% [inhibitor]
Cc1nnc(-c2ccco2)c2cn(-c3cccc(Br)c3)nc12	inconclusive: 12.6 µM [inhibitor, partial curve]	–
CCN(CC)C(=O)COc1ccc2oc(C)c(C(=O)OC(C)C)c2c1	inconclusive: 11.2 µM [inhibitor, partial curve]	–
Cc1ccc(-c2cc(C(=O)N3CCN(c4ccc(F)cc4)CC3)c3ccccc3n2)o1	inconclusive: 11.2 µM [inhibitor, single point]	–
O=C(NC1CCCCC1)N1CCN(c2nc(-c3ccccc3)cs2)CC1	active: 10 µM	–
COc1ccc(/C=N/NC(N)=S)cc1OC(=O)c1cccc2ccccc12	inconclusive: 25.1 µM [inhibitor, single point]	–
COc1ccc(S(=O)(=O)N2CCCCCC2)cc1C(=O)N(C)CC(=O)Nc1cc(C)ccc1C	inconclusive: 2.82 µM [inhibitor, single point]	–
Cc1ccc(N2C(=O)S/C(=C/c3cn(C)c4ccccc34)C2=O)cc1	inconclusive: 15.8 µM [inhibitor, single point]	–
Cc1sc2nc(CN3CCCC3)nc(N3CCN(S(=O)(=O)c4cccc(F)c4)CC3)c2c1C	inconclusive: 25.1 µM [inhibitor, partial curve]	–
O=C(NNC1=C(C(=O)C(F)(F)F)CCC1)c1cccc(Cl)c1	inconclusive: 5.62 µM [inhibitor, single point]	–
Cc1ccc(C(=O)CN2C(=O)C(C)Oc3ccccc32)cc1 (configuration not stated)	inconclusive: 22.4 µM [inhibitor, single point]	–
Cc1ccc(OCC(=O)N/N=C/c2ccc([N+](=O)[O-])o2)cc1	inconclusive: 10 µM [inhibitor, partial curve]	–
O=C(CCC(=O)N1CCN(c2ccc(F)cc2)CC1)N1CCN(c2ccc(F)cc2)CC1	inconclusive: 35.5 µM [inhibitor, partial curve, poor fit]	–
Cn1nc(-c2ccc(OCC(=O)Nc3ccccc3)cc2)c2ccccc2c1=O	inconclusive: 20 µM [inhibitor, partial curve, poor fit]	–
O=C(c1ccc(N2CCN(C(=O)c3ccccc3Br)CC2)cc1)c1cccc(F)c1	inconclusive: 11.2 µM [inhibitor, single point]	–
CCc1ccc(C(=O)NNC(=O)CC2OC(=O)c3ccccc32)cc1 (configuration not stated)	inconclusive: 31.6 µM [inhibitor, single point]	–
Cn1c(=O)n(Cc2ccc(Br)cc2)c2ccccc21	inconclusive: 0.282 µM [inhibitor, full curve]	–
CN1CCN(S(=O)(=O)c2ccc(NC(=O)c3cccc(S(=O)(=O)N4CCCC4)c3)cc2)CC1	inconclusive: 31.6 µM [inhibitor, single point]	–
Cc1cc(NC(=O)c2cccc(S(=O)(=O)N3c4ccccc4CC3C)c2)no1 (configuration not stated)	inconclusive: 31.6 µM [inhibitor, single point]	–

SMILES	Potency	activity change, negative = inhibition
N=c1n(Cc2ccc(Cl)cc2)c2ccccc2n1CC(O)COc1ccccc1 (configuration not stated)	active: 12.6 µM	–
O=C(C1CCCN(S(=O)(=O)c2cccc3nsnc23)C1)N1CCN(c2ccccn2)CC1 (configuration not stated)	inconclusive: 31.6 µM [inhibitor, single point] and inconclusive: 12.6 µM [inhibitor, single point]	–
CC(C)c1ccc(NC(=O)COC(=O)c2cc(=O)[nH]c3ccccc23)cc1	–	inactive: 5.44%
O=C(c1ccc2c(c1)OCO2)C1CCCN(Cc2cccc(C(F)(F)F)c2)C1 (configuration not stated)	inconclusive: 31.6 µM [inhibitor, single point]	–
O=C(Nc1ccc(/C=C/c2nc3ccccc3o2)cc1)c1ccc(F)cc1	inconclusive: 3.16 µM [inhibitor, single point]	–
COc1cc(/C=N/NC(=O)c2ccncc2)ccc1OC(=O)c1ccc([N+](=O)[O-])cc1	–	inactive: 10.6%
Cc1cccc(NC(=O)c2cc(Cl)sc2Cl)c1C	–	inactive: -2.37%
Cc1cc(NC(=O)CN2C(=O)NC(CC(C)C)C2=O)no1 (configuration not stated)	–	inactive: 18.5%
CCOC(=O)C1CCCN(CC(=O)Nc2c(C(=O)OC)[nH]c3ccc(Br)cc23)C1 (configuration not stated)	inconclusive: 0.891 µM [inhibitor, full curve, poor fit]	–
O=C(Nc1cccc(-c2csc(Nc3ccc(Cl)cc3)n2)c1)c1ccccc1	inconclusive: 11.2 µM [inhibitor, partial curve]	–
Cc1ccc(CNC(=O)CCSCc2ccc(C)cc2)cc1	–	inactive: -16%
O=[N+]([O-])c1ccc(S(=O)(=O)N/N=C/c2ccsc2)cc1	–	inactive: 1.47%
COc1cc(SC)ccc1C(=O)Nc1ccc(Br)cn1	inconclusive: 22.4 µM [inhibitor, single point]	–
NC(=S)NN=C1Cc2cccc3cccc1c23	inconclusive: 2.82 µM [inhibitor, single point]	–
CC1(C)c2ssc(=S)c2-c2ccccc2N1C(=O)CSC1=NCCS1	inconclusive: 11.2 µM [inhibitor, partial curve]	–
CCc1ccc(CN2CCN(C(=O)c3cccc(OC)c3OC)CC2)cc1	inconclusive: 6.31 µM [inhibitor, partial curve]	–
COc1ccc(NC(=O)CCn2c(=O)c3cccn3c3ccccc32)cc1	inconclusive: 15.8 µM [inhibitor, partial curve]	–
O=C(Nc1ccc2nc3n(c(=O)c2c1)CCCC3)c1ccccc1F	–	inactive: -13.8%
COCCC1CCCCN1C(=O)c1ccc2nc(Cc3ccccc3F)oc2c1 (configuration not stated)	inconclusive: 35.5 µM [inhibitor, single point]	–
CC(C)c1cc(C(=O)N/N=C/C(Br)=C/c2ccccc2)n[nH]1	active: 22.4 µM	–
CCCCNc1cc(C)oc(=O)c1C(C)=O	inconclusive: 0.562 µM [inhibitor, full curve]	–
